{"source": "paper PMC5811451", "about": "(2018)", "key": {"[1]": {"test_system": "Mango III without 3' UUC (RNA, aptamer) GGCACGGAAGGAAGGAUUGGUAUGUGGUAUACGUGCC", "experiment": "fluorescence titration with RNA", "settings": "140 mM KCl, 1 mM MgCl2; 10 mM NaH2PO4 pH 7.2, 0.05% Tween-20"}, "[2]": {"test_system": "Mango IV variant 20 (5' CGA of core replaced with GAA) (RNA, aptamer) GGCACGUACGAAGGGAGUGGUGAGGAUGAGGCGAGUACGUGC", "experiment": "fluorescence titration with RNA", "settings": "140 mM KCl, 1 mM MgCl2; 10 mM NaH2PO4 pH 7.2, 0.05% Tween-20; four-fold weaker than Mango IV"}, "[3]": {"test_system": "Mango III without 5' GAA (RNA, aptamer) GGCACGGGAAGGAUUGGUAUGUGGUAUAUUCCGUGCC", "experiment": "fluorescence titration with RNA", "settings": "140 mM KCl, 1 mM MgCl2; 10 mM NaH2PO4 pH 7.2, 0.05% Tween-20"}, "[4]": {"test_system": "Mango I (RNA, G4) GGCACGUACGAAGGGACGGUGCGGAGAGGAGAGUACGUGC", "experiment": "competition with TO1-B fluorescence", "settings": "TO1-B displaced; in vitro transcription mixture"}, "[5]": {"test_system": "Mango II (RNA, G4) GGCACGUACGAAGGAGAGGAGAGGAAGAGGAGAGUACGUGC", "experiment": "fluorescence titration with RNA", "settings": "140 mM KCl, 1 mM MgCl2; 10 mM NaH2PO4 pH 7.2, 0.05% Tween-20; 1.4 nM TO3-Biotin"}, "[6]": {"test_system": "Mango I (RNA, G4) GGCACGUACGAAGGGACGGUGCGGAGAGGAGAGUACGUGC", "experiment": "fluorescence titration with RNA", "settings": "140 mM KCl, 1 mM MgCl2; 10 mM NaH2PO4 pH 7.2, 0.05% Tween-20; 1.4 nM TO3-Biotin"}, "[7]": {"test_system": "Mango III (RNA, G4) GGCACGUACGAAGGAAGGAUUGGUAUGUGGUAUAUUCGUACGUGCC", "experiment": "fluorescence titration with RNA", "settings": "140 mM KCl, 1 mM MgCl2; 10 mM NaH2PO4 pH 7.2, 0.05% Tween-20; 1.4 nM TO3-Biotin"}, "[8]": {"test_system": "Mango IV (RNA, G4) GGCACGUACCGAGGGAGUGGUGAGGAUGAGGCGAGUACGUGC", "experiment": "fluorescence titration with RNA", "settings": "140 mM KCl, 1 mM MgCl2; 10 mM NaH2PO4 pH 7.2, 0.05% Tween-20; 1.4 nM TO3-Biotin"}}, "data": [{"smiles": "CN1C=CC(=Cc2sc3ccccc3[n+]2CC(=O)NCCOCCOCCOCCNC(=O)CCCC[C@@H]2SC[C@@H]3NC(=O)N[C@@H]32)c2ccccc21", "values": [{"measurement": "binding", "setting": "[1]", "result": "no"}, {"measurement": "KD", "setting": "[2]", "result": "40 ± 2", "unit": "nM"}, {"measurement": "binding", "setting": "[3]", "result": "no"}]}, {"smiles": "CCc1c(C)c2cc3nc(cc4nc(cc5c(CC)c(C)c(cc1[nH]2)n5C)C(C)=C4CCC(=O)O)C(CCC(=O)O)=C3C", "values": [{"measurement": "binding", "setting": "[4]", "result": "yes"}]}, {"smiles": "CN1C=CC(=C/C=C/c2sc3ccccc3[n+]2CC(=O)NCCOCCOCCOCCNC(=O)CCCC[C@@H]2SC[C@@H]3NC(=O)N[C@@H]32)c2ccccc21", "values": [{"measurement": "KD", "setting": "[5]", "result": "1.8 ± 0.1", "unit": "nM"}, {"measurement": "KD", "setting": "[6]", "result": "5.1 ± 0.3", "unit": "nM"}, {"measurement": "KD", "setting": "[7]", "result": "15.0 ± 1.3", "unit": "nM"}, {"measurement": "KD", "setting": "[8]", "result": "10.4 ± 0.1", "unit": "nM"}]}]}
